Measurements as given in the supplement of paper PMC7826260.
The other results are listed elsewhere or left out. Cleavage of a single-stranded DNA pool by Rep nickase domains was read by sequencing (1 h at 37 °C, 3 µM enzyme); the outer parts of the 90-letter strands are left off. Uncut reads are compared with the no-enzyme pool on a log2 scale; uncut sequences lie near 0, cut ones below; no hit call is given. Counts are relative to all reads; where an enzyme cuts many sequences, the uncut ones exceed 0.

Key:
Experiment in all cases: uncleaved DNA left, log2 of reads against the no-enzyme library (log2 ratio); higher = less cleavage (more negative = more Rep cleavage of the k-mer); sequences stand for … in CTCGTCCG…ACCGGAGA
[1] = tested on: T1, Rep nickase domain of Muscovy duck circovirus
T1 sequence (residues 1-111, tag not shown): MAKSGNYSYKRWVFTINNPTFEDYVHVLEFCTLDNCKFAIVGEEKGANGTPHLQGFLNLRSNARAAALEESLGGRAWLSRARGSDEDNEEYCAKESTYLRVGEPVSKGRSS
Experimental: (§1)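 A pool of 90-nt single-stranded DNAs with seven random bases just before the constant AC of the nick site (name = the seven bases) was cut by 3 µM recombinant His6-SUMO-tagged Rep nickase domain (300 nM DNA, 50 mM HEPES pH 8.0, 50 mM NaCl, 1 mM MnCl2, 1 h, 37 °C, three replicates). Uncut DNA was amplified and sequenced.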

[2] = tested on: T2, Rep nickase domain of banana bunchy top virus
T2 sequence (residues 1-94, tag not shown): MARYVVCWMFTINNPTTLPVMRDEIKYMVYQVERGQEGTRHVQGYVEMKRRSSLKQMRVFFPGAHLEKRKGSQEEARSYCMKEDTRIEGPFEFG
Experimental: as §1

[3] = tested on: T3, Rep nickase domain of cabbage leaf curl virus
T3 sequence (residues 1-116, tag not shown): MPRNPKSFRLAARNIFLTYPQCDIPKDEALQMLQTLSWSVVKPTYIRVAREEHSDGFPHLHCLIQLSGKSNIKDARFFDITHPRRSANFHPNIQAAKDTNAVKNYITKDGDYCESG
Experimental: as §1

[4] = tested on: T4, Rep nickase domain of chickpea chlorotic dwarf virus
T4 sequence (residues 1-124, tag not shown): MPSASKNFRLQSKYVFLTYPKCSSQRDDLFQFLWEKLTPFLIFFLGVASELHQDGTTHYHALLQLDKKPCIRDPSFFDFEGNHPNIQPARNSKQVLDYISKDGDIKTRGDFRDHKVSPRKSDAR
Experimental: as §1

[5] = tested on: T5, Rep nickase domain of faba bean necrotic yellows virus
T5 sequence (residues 1-98, tag not shown): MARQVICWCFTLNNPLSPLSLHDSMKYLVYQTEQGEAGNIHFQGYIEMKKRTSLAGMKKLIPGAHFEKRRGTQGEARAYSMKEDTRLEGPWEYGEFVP
Experimental: as §1

[6] = tested on: T6, Rep nickase domain of maize striate mosaic virus
T6 sequence (residues 1-117, tag not shown): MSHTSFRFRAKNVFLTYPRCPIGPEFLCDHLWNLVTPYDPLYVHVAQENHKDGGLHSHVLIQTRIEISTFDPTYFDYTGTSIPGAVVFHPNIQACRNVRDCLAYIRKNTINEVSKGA
Experimental: as §1

[7] = tested on: T7, Rep nickase domain of porcine circovirus 2
T7 sequence (residues 2-116, tag not shown): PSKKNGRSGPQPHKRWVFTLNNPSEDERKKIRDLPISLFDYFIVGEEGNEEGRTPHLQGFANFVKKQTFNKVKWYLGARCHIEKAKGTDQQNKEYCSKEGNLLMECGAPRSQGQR
Experimental: as §1

[8] = tested on: T8, Rep nickase domain of tomato golden mosaic virus
T8 sequence (residues 1-124, tag not shown): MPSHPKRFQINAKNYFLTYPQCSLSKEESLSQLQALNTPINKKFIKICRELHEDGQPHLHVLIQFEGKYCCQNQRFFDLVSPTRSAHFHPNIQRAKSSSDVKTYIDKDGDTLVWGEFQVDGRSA
Experimental: as §1

[9] = tested on: T9, Rep nickase domain of tomato yellow leaf curl virus
T9 sequence (residues 1-136, tag not shown): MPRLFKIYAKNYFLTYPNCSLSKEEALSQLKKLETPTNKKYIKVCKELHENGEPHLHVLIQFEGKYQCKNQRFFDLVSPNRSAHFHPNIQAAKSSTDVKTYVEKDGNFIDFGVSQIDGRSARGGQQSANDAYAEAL
Experimental: as §1

[10] = tested on: T10, Rep nickase domain of wheat dwarf virus
T10 sequence (residues 1-137, tag not shown): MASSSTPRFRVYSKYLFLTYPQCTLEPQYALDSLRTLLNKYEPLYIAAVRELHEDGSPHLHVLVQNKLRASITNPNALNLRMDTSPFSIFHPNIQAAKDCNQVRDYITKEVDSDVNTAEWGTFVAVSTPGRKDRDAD
Experimental: as §1

Row | Sequence | uncleaved DNA left (log2) [1] | uncleaved DNA left (log2) [2] | uncleaved DNA left (log2) [3] | uncleaved DNA left (log2) [4] | uncleaved DNA left (log2) [5] | uncleaved DNA left (log2) [6] | uncleaved DNA left (log2) [7] | uncleaved DNA left (log2) [8] | uncleaved DNA left (log2) [9] | uncleaved DNA left (log2) [10]
1 | TCCCACA | -0.138 | -0.101 | 0.0316 | -1.16 | 0.0128 | -0.2 | -0.0843 | -0.0517 | -0.0521 | -0.162
2 | ATGCGCA | -0.0184 | 0.0602 | -0.441 | -0.454 | -0.0181 | -0.995 | 0.0125 | -0.0584 | -0.00294 | 0.000879
3 | TGCCTAC | 0.0433 | 0.0207 | 0.131 | -0.867 | -0.0731 | 0.403 | 0.0611 | -0.0459 | -0.125 | -0.126
4 | CCCGTAG | 0.172 | 0.148 | -0.632 | -0.231 | 0.0421 | -1.31 | 0.223 | 0.042 | 0.026 | 0.0422
5 | ATTCGTT | -1.62 | -1.32 | -0.33 | -2.02 | 0.0434 | -1.01 | -2.87 | -0.114 | -0.0448 | -0.0522
6 | CACTCTT | -2.98 | -3.17 | -1.26 | -2.8 | -0.491 | -0.884 | -3.96 | -0.364 | -0.0131 | -0.183
7 | CCGATCT | 0.0262 | -0.142 | 0.00662 | -1.61 | 0.1 | -0.159 | -0.224 | -0.0917 | 0.022 | -0.042
8 | CCAACGC | -0.0263 | -0.166 | -0.209 | -0.93 | 0.0132 | -1 | 0.11 | -0.133 | -0.109 | -0.14
9 | TGGGGTG | 0.139 | -0.00794 | -0.158 | -0.0977 | 0.0753 | -0.215 | 0.218 | 0.000217 | -0.0596 | 0.0726
10 | CGGGTAC | -0.146 | -0.111 | 0.554 | 1.33 | -0.0835 | 1.58 | 0.201 | 0.0412 | -0.0862 | -0.0688
11 | AATTGGC | -0.0733 | -0.106 | -0.594 | -0.808 | -0.00128 | -1.32 | 0.0799 | -0.112 | -0.041 | -0.122
12 | ATAGTGT | 0.135 | 0.102 | 0.0299 | 0.153 | 0.0467 | -0.172 | 0.077 | 0.143 | 0.148 | 0.0526
13 | GGAGGAC | -0.0653 | -0.067 | 0.758 | 1.91 | -0.0865 | 2.08 | 0.175 | -0.0636 | 0.0101 | 0.0797
14 | AATACCC | -0.1 | -0.0406 | 0.0367 | -1.05 | 0.0196 | -0.239 | -0.862 | -0.083 | -0.13 | -0.0453
15 | GGAAGTT | -0.0251 | 0.0391 | 0.679 | 1.46 | -0.0848 | 1.99 | 0.135 | -0.0308 | 0.00555 | 0.107
16 | GGTTGAC | -0.0447 | 0.116 | 0.844 | 1.9 | -0.0368 | 2.2 | 0.317 | -0.0111 | 0.135 | 0.17
17 | GAAACAG | 0.0129 | 0.109 | 0.16 | 0.358 | 0.0695 | -0.242 | 0.191 | 0.0311 | 0.0794 | 0.124
18 | TAGAATA | 0.0828 | -0.0555 | -0.369 | -1.95 | 0.0504 | -0.159 | -2.8 | 0.013 | 0.0144 | 0.0359
19 | CTGGAAG | -0.00913 | -0.0222 | -0.786 | -0.411 | -0.051 | -1.01 | 0.139 | 0.0101 | 0.0282 | -0.0685
20 | GCACTTG | -0.0698 | -0.00513 | -0.408 | -0.47 | -0.00205 | -0.773 | 0.0632 | -0.189 | -0.0557 | -0.182
21 | ACTACGC | -0.0228 | -0.074 | -0.136 | -0.333 | 0.0619 | -1.13 | 0.119 | -0.15 | -0.0927 | -0.112
22 | TTAAAGG | 0.00903 | 0.0676 | 0.531 | 1.37 | -0.00229 | 1.55 | 0.055 | 0.117 | -0.0821 | -0.000699
23 | TGGCTCT | -0.0552 | 0.0162 | 0.175 | -0.652 | -0.0619 | 0.364 | -0.163 | -0.183 | 0.00167 | 0.0369
24 | ACCAATG | 0.0592 | 0.0531 | -0.79 | -0.353 | 0.0117 | -1.01 | 0.104 | 0.0153 | 0.0773 | -0.122
25 | TGCTGAT | -0.024 | -0.0487 | 0.163 | 0.452 | -0.028 | 0.851 | -0.888 | -0.0419 | -0.106 | -0.0503
26 | CGGGGAT | 0.161 | 0.147 | 0.598 | 1.66 | 0.211 | 2.03 | 0.223 | 0.0229 | -0.0524 | 0.148
27 | CTTCAAG | 0.0249 | -0.0633 | -0.791 | -0.496 | -0.0329 | -1.2 | 0.205 | -0.12 | 0.0174 | 0.015
28 | GATATGC | 0.075 | -0.058 | -0.349 | -0.234 | -0.0714 | -0.894 | 0.0311 | -0.0571 | -0.0746 | -0.115
29 | AGGTACC | 0.0257 | -0.019 | 0.107 | 0.33 | 0.0307 | 0.562 | -0.258 | -0.018 | 0.0516 | 0.0962
30 | GCGATCT | 0.0904 | -0.00458 | -0.0309 | 0.444 | -0.024 | 1.41 | 0.0137 | -0.119 | 0.0636 | 0.103
